Experimental findings from PubChem BioAssay AID1346428 (National Center for Advancing Translational Sciences (NCATS), 2018) are described below.

Molecules are shown by their SMILES. Screen size: about 48,000 compounds; about 1,200 (2.5%) were called active. Another 2% or so got no clear call; they are omitted.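 How the source made its calls: active means activation of at least 60% and not above a set upper limit (about 1 call in 100 departs from these limits); inconclusive means activation of 40% to 60%, or above that upper limit; inactive means activation under 40%.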 The list shows a part of the results.

Chain of UniProt O75388 (O75388 whole entry, looked up): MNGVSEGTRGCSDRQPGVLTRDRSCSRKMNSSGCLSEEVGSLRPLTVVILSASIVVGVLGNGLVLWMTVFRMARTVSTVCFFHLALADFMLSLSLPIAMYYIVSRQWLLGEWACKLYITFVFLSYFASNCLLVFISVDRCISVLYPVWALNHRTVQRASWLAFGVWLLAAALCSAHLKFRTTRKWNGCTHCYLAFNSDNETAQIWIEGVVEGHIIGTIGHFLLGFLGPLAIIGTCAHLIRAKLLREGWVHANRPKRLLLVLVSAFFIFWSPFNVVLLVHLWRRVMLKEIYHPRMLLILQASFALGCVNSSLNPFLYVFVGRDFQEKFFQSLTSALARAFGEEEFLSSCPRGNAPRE

For this assay, the target named is Probable G-protein coupled receptor 32 (Homo sapiens) (UniProt O75388). The experiment in a line: qHTS for Agonists of Human Resolvin D1 Receptor DRV1. Further: 0% is about no effect. As to conditions: CHO-K1 GPR32 beta-arrestin PathHunter luminescence, 90 min; at 76.9 µM; stronger effect = higher value; zero percent set by DMSO-only wells. In outline:
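Cells are plated overnight, treated with compounds in DMSO for 90 minutes at 37 °C, and developed with PathHunter detection reagent for 1 hour before luminescence is read; signal reflects beta-arrestin binding to GPR32 in engineered CHO-K1 cells.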
(In general: In qHTS, concentration-response curves come from the screen itself.)
In the case of `CC(C)(C)C(=O)Nc1ccc2nc(SCCOc3ccccc3Cl)sc2c1`, the activation is inactive: 25.5%.
Under `CCOc1ccc(-c2cc(CCCC(=O)NCCc3ccc(OC)c(OC)c3)no2)cc1` stands inactive: 19.6%; under `CN(C)c1ccc(C(CNS(=O)(=O)c2ccc(F)cc2)N2CCCC2)cc1` (stereo not drawn), inactive: -8.89%; under `O=C(CCS(=O)(=O)c1nc(-c2ccc3c(c2)OCO3)cc(C(F)(F)F)n1)Nc1ccc(F)c(Cl)c1`, inactive: -27.7%.
Under `COc1ccc(Nc2ncc(C(=O)Nc3cc(Cl)c(OC)cc3OC)c3ccccc23)cc1` stands inactive: -26.4%; under `COc1ccc(N2CCN(C(=O)c3ccc(Nc4nc5ccccc5n5nnnc45)cc3)CC2)cc1`, inactive: -21.3%; under `O=c1c2cc3c(cc2n(Cc2cccc(Cl)c2)c(=O)n1Cc1nc(-c2ccccc2)no1)OCO3`, inactive: -2.26%.
In the case of `CC(=O)N1CCCc2cc(S(=O)(=O)N3CCCC(C(=O)Nc4cccc(F)c4)C3)ccc21` (stereo not drawn), the activation was inactive: 3.03%.
Under `COc1ccc(NC(=O)CCNS(=O)(=O)c2cccc3nonc23)c(OC)c1` stands inactive: -3.56%.
On to `NC(=NCc1ccccc1)NC(=O)c1nc(Cl)c(N)nc1N`, for which the activation was inactive: 6.18%.
Turning to `O=C(Nc1ncc(Cc2ccc(Cl)cc2)s1)c1ccc2c(c1)CC(c1ccccc1)OC2=O` (stereo not drawn), the activation is inactive: 10.1%.
Under `CCCn1c2ccccc2c2cnn(CC(=O)NCCc3ccc(OCC)c(OCC)c3)c(=O)c21` stands inactive: -7.9%; under `Cc1ccc(NC(=O)CCNS(=O)(=O)c2ccc3c(c2)CCN3C(=O)C2CC2)c(Cl)c1`, inactive: 33.3%.
On to `CCOC(=O)CNC(=O)c1cc2c(=O)n3cccc(C)c3nc2s1`, for which the activation is inactive: 3.05%.
The result for `COc1cccc(CNC(=O)CSc2nc3ccccc3nc2Cc2ccc(C)cc2)c1OC` reads inactive: -9.02%; that for `COc1cccc(C2CC(=O)Nc3c2c(=O)nc2c(C)cccn32)c1` (stereo not drawn), inactive: 2.21%.
The result for `CCOc1ccccc1NC(=O)CSc1ncc(S(=O)(=O)c2ccc(C(C)(C)C)cc2)c(=O)[nH]1` reads inactive: 5.98%.
The result for `CCCCNC(=O)CCn1c(=O)c2cccn2c2ccc(F)cc21` reads inactive: -17.5%.
In the case of `O=C(CSc1nc2ccccc2nc1Cc1ccc(Cl)cc1)N1CCN(c2ccccc2F)CC1`, the activation was inactive: -6.2%.
Under `Cc1ccccc1OCC(=O)Nc1ccc2nc(SCCOc3ccccc3)sc2c1` stands inactive: -0.176%; under `CCOc1ccc(-c2cc(C(=O)N3CCN(c4cccc(C)c4)C(C)C3)c3ccccc3n2)cc1` (stereo not drawn), inactive: -16.4%.
Under `Cc1ccc(-c2nnc(Nc3ccc(S(N)(=O)=O)cc3)c3ccccc23)cc1S(=O)(=O)N1CCOCC1` stands inactive: 21.4%; under `CCc1ccccc1NC(=O)C(=O)NCC(c1cccnc1)N1CCc2ccccc21` (stereo not drawn), inactive: -26.5%.
Under `CN(C(=O)CSc1nc2ccc(NC(=O)CCc3ccccc3)cc2s1)c1ccccc1` stands inactive: -32.8%; under `Cc1ccc(C)c(Cn2c(SCC(=O)N(C)Cc3ccccc3)nc3ccccc32)c1`, inactive: -42.6%; under `Cc1ccc(C)c(N2CCN(C(=O)CCCCCn3c(=O)[nH]c4ccccc4c3=O)CC2)c1`, inactive: -17%.
With `COc1ccc2c(c1)Cc1sc(NC(=O)c3cccc(F)c3)nc1-2`, the activation was inactive: -40.2%.
Under `CC(NC(=O)c1cccc(NC(=O)c2nsc3ccccc23)c1)c1ccccc1` (stereo not drawn) stands inactive: -18%.
Under `CCCC(=O)Nc1cc(-c2nc3cccnc3s2)ccc1C` stands inactive: -16.8%.
Under `Cc1ccc(NC(=O)NCC2CCN(Cc3cccc(Cl)c3)CC2)cc1Cl` stands inactive: -12.8%; under `CCc1cccc(NC(c2nnc(-c3ccccc3)o2)c2ccc(F)cc2Cl)c1` (stereo not drawn), inactive: -46.7%; under `COc1ccc(C(=O)Nc2ccc3oc(-c4ccc(OC)cc4)nc3c2)cc1`, inactive: 8.19%.
With `CCOC(=O)c1ccc(NC(=O)C2CC(=O)N(c3ccc(C(C)C)cc3)C2)cc1` (stereo not drawn), the activation was inactive: 24%.
Under `CCOc1ccc(C(=O)c2cn(Cc3ccc(OC)cc3)c3cc(OC)c(OC)cc3c2=O)cc1` stands inactive: 20.6%; under `Cc1ccc(C(=O)CSc2nnc(-c3ccccc3)n2-c2ccccc2)cc1`, inactive: -0.2%.
Under `COc1cccc(-n2c(-c3ccco3)nc3c(cnn3-c3ccc(C)cc3)c2=O)c1` stands inactive: -27.3%.
Under `CCN1c2ccccc2-c2nc(SCC(=O)Nc3c(C)cc(C)cc3C)ncc2S1(=O)=O` stands inactive: -17.5%; under `Cc1cccc(NC(=O)CCNS(=O)(=O)c2cccc3nonc23)c1`, inactive: -22.1%; under `CC(=O)Nc1ccc(S(=O)(=O)NC2(C(F)(F)F)C(=O)Nc3c2c(=O)[nH]c(=O)n3-c2ccc(C)c(C)c2)cc1` (stereo not drawn), inactive: -8.31%.
Consider `Cc1ccc2cccc(NC(=O)C(C)Oc3ccc(C)c(C)c3)c2n1` (stereo not drawn), for which the activation is inactive: -2.89%.
Under `CC1=C(C(=O)NCc2ccc(C)cc2)C2(CCCCC2)OC1=O` stands inactive: -15.9%; under `Cc1ccc(Nc2c(F)cccc2Cl)c(CC(=O)O)c1`, inactive: 31%.
For `CCOc1ccc(NC(=O)CSc2ncc3c(n2)-c2cc(Cl)ccc2N(C)S3(=O)=O)cc1`, the activation is inactive: -2.42%.
The result for `O=C(Nc1cc(Cl)ccc1Cl)C1(c2cccs2)CCOCC1` reads inactive: -4.35%; that for `Cc1noc(Cn2c(=O)c3ccccc3n(CC(=O)Nc3ccc(Cl)cc3)c2=O)n1`, inactive: -2.49%; that for `Cc1cc(=O)n2c(C(=O)Nc3ccc(Br)cc3)c(C(=O)Nc3ccccc3)sc2n1`, inactive: -11.5%.
Under `COc1ccccc1OCc1nnc(-c2ccccc2)o1` stands inactive: -4.77%.
Under `CCCCOC(=O)c1ccc(OC(=O)c2sc3ncn(Cc4ccccc4Cl)c(=O)c3c2C)cc1` stands inactive: -9.3%; under `Cc1ccc(Cl)cc1Nc1sc(C(=O)c2ccc(F)cc2)c(N)c1S(C)(=O)=O`, inactive: -31.7%; under `COc1cccc(CNC(=O)Cc2csc3nc(-c4ccccc4)cn23)c1`, inactive: -4.88%.
Consider `CCOc1ccc(CNCCCSc2nnnn2C)cc1OC`, for which the activation was inactive: 3.97%.
`O=C(CSc1nc(=O)n(Cc2ccco2)c2c1CCC2)Nc1cccc(F)c1`: the activation was inactive: -2.68%.
The result for `CCOc1ccc(NC(=O)Cn2cc(C(=O)c3ccc(OC)cc3)c(=O)c3cc4c(cc32)OCO4)cc1` reads inactive: 1.96%.
